{
  "source": "patent US20230218776A1",
  "about": "“ANTI-NTB-A ANTIBODIES AND RELATED COMPOSITIONS AND METHODS” (SEAGEN INC., priority 2015, published 2023)",
  "molecules": {"B1": {"name": "h20F3ec: humanized 20F3 HDLD antibody with cysteine at the 239 position (ec variant) (antibody)", "heavy": "QIQLVQSGSELKKPGASVKVSCKASGYTFTNYGMNWVRQAPGQDLKWMGWINTYSGEPRYADDFKGRFVFSLDKSVNTAYLQISSLKAEDTAVYYCARDYGRWYFDVWGQGTTVTVSS[sequence of human IgG1 constant region with changes omitted]", "light": "QIVLSQSPATLSLSPGERATMSCRASSSVSHMHWYQQKPGQAPRPWIYATSNLASGVPARFSGSGSGTDYTLTISSLEPEDFAVYYCQQWSSTPRTFGGGTKVEIKRTVAAPSVFIFPPSDEQLKSGTASVVCLLNNFYPREAKVQWKVDNALQSGNSQESVTEQDSKDSTYSLSSTLTLSKADYEKHKVYACEVTHQGLSSPVTKSFNRGEC"}},
  "format_in_all_cases": "cell-based",
  "key": {"Raji cell line": {"test_system": "Raji cell line", "experiment": "Complement-dependent cytotoxicity (CDC), Sytox Green", "details": "0.02-50 μg/mL, human serum, 2 hours", "experimental": "(§1) Complement-Dependent Cytotoxicity (CDC): Normal human T cells (All Cells, Alameda, Calif.) or cancer cell lines (ATCC, Manassas, Va.) were labelledlabeled with 5 μM Sytox Green (Life Technologies, Grand Island, N.Y.), then bound with serial a serial dose titrations of anti-human NTB-A h20F3 antibody or PBD dimer ADCies (0.02-50 μg/mL) in RPMI1640 media+1020% human serum (Complement Technology, Tyler, TX or Solomon Park Research Laboratories, Kirkland, Wash. Cells were incubated at 37° C., 5% CO2 for 2 hours, and fluorescence from lysed cells was measured with an Envision plate reader (Perkin Elmer, Waltham, Mass.). Data was expressed as a percentage of maximum cell lysis determined with a positive control of 1% TritonX-100-treated cells (Sigma, ST. Louis, Mo.).\n(§2) Three cell types were used for analysis: normal human T cells, WIL2-S cells, and Raji cells. Expression of relevant receptors on each cell type is found in Table 7 and is indicated as number of receptor per cell."}, "WIL2-S cell line [1]": {"test_system": "WIL2-S cell line", "experiment": "Complement-dependent cytotoxicity (CDC), Sytox Green", "details": "0.02-50 μg/mL, human serum, 2 hours", "experimental": "as §1, §2"}, "Normal human T cells": {"test_system": "Normal human T cells", "experiment": "ADCC, flow cytometry-based assay with NK effector cells", "details": "NK effector to target 10:1, 4 hours", "experimental": "A flow cytometry-based assay was used to measure ADCC activity on normal human T cells. PKH2-labeled normal human T cell targets were bound with titrations of antibody (0.1 ng/mL-10 μg/mL) and then incubated with effector NK cells at an effector to target ratio of 10:1 for 4 hours at 37° C., 5% CO2. Viability was determined by 7-AAD incorporation as measured on the FACsCalibur flow cytometer (BD BioSciences, San Jose, Calif.)."}, "WIL2-S cell line [2]": {"test_system": "WIL2-S cell line", "experiment": "ADCC, chromium-51 release with NK effector cells", "details": "NK effector to target 10:1, 4 hours", "experimental": "Antibody-Dependent Cellular Cytotoxicity (ADCC) Activity Assay: ADCC cytotoxic activity was measured by chromium-51 release in which effector natural killer (NK) cells kill (lyse) target cells via binding to the antibody or ADC on the target cells. WIL2-S cells were labeled with chromium-51, bound with antibody (0.1 ng/mL-10 μg/mL), and then incubated with NK cells at an effector to target ratio of 10:1 for 4 hours at 37° C., 5% CO2. Supernatant was removed to a filter plate and chromium-51 counts were measured with a TopCount (Perkin Elmer, Waltham, Mass.). Data was expressed as a percentage of maximum specific cell lysis determined with a positive control of 1% TritonX-100-treated cells (Sigma, St. Louis, Mo.)."}},
  "data": [
    {"molecule": "B1", "values": [
      {"measurement": "CDC Maximum % Specific Cell Lysis", "setting": "Raji cell line", "result": "3.3 ± 0.7", "unit": "%"},
      {"measurement": "CDC Maximum % Specific Cell Lysis", "setting": "WIL2-S cell line [1]", "result": "0.14 ± 0.2", "unit": "%"},
      {"measurement": "ADCC Maximum % Specific Cell Lysis", "setting": "Normal human T cells", "result": "40 ± 0.6", "unit": "%"},
      {"measurement": "ADCC Maximum % Specific Cell Lysis", "setting": "WIL2-S cell line [2]", "result": "25 ± 2.4", "unit": "%"}
    ]}
  ]
}
